Reference: the antibiotic and cytotoxicity screens of Wong et al. (2023)
The list shows a part of the results.

These molecules were tested on S. aureus RN4220 (assay: growth inhibition call (relative growth <= 0.2)). Details: 50 µM.

Growth inhibition call, inactive:
C[C@@H]1CN([C@@H](C)CO)C(=O)Cc2cc(NC(=O)Nc3ccc4c(c3)OCO4)ccc2O[C@@H]1CN(C)Cc1ccc(-c2ccccc2)cc1
C[C@H](CO)N1C[C@H](C)[C@H](CN(C)Cc2ccc(Oc3ccccc3)cc2)Oc2ccc(NS(=O)(=O)c3ccccc3)cc2C1=O
Cc1noc(C)c1NC(=O)N(C)C[C@H]1Oc2ccc(NC(=O)NC(C)C)cc2CC(=O)N([C@H](C)CO)C[C@H]1C
C[C@@H]1CN([C@@H](C)CO)C(=O)c2cc(NC(=O)Cn3cnnn3)ccc2O[C@@H]1CN(C)Cc1ccc(C(=O)O)cc1
C=CCNC(=O)[C@H]1[C@@H]2C(=O)O[C@@H](c3ccccc3)[C@@H](c3ccccc3)N2[C@@H](c2ccc(OCCO)cc2)[C@]12C(=O)N(C(=O)OCCOC)c1ccc(C#CC3(O)CCCCCC3)cc12
COc1ccc(NC(=O)Nc2ccc3c(c2)C(=O)N([C@@H](C)CO)C[C@@H](C)[C@H](CN(C)Cc2ccccc2)OCCCC[C@@H](C)O3)cc1
C[C@@H]1CN([C@@H](C)CO)C(=O)Cc2cc(NS(=O)(=O)c3cn(C)cn3)ccc2O[C@@H]1CN(C)Cc1ccc(C(=O)Nc2ccccc2N)cc1
